This is one part of the list.

Our source for the cytotoxicity call and growth inhibition call values is the antibiotic and cytotoxicity screens of Wong et al. (2023).

The subject of one experiment is HSkMC. Nature of the experiment: cytotoxicity call (relative viability < 0.9). The following applies: 10 µM.
In a further experiment the test system is HepG2. Nature of the experiment: cytotoxicity call (relative viability < 0.9). The following applies: 10 µM.
The subject of another experiment is S. aureus RN4220. Nature of the experiment: growth inhibition call (relative growth <= 0.2). The following applies: 50 µM.

As to `COc1ccc(NC(=O)Nc2ccc3c(c2)C(=O)N([C@@H](C)CO)C[C@@H](C)[C@@H](CN(C)S(=O)(=O)c2ccc(OC)cc2)OCCCC[C@@H](C)O3)cc1`, the cytotoxicity call in the experiment with HSkMC and in the experiment on HepG2 was “inactive” each time. Besides, the growth inhibition call with S. aureus RN4220 was “inactive”.

On to `COc1ccc(CN(C)C[C@@H]2OCCCC[C@@H](C)Oc3ccc(NC(=O)Nc4ccc(C(F)(F)F)cc4)cc3C(=O)N([C@H](C)CO)C[C@H]2C)cc1`, for which the cytotoxicity call with HSkMC and in the experiment with HepG2 was “active” in each case. The growth inhibition call with S. aureus RN4220 is “inactive”.

For the compound `CO[C@H]1CN(C)C(=O)c2ccc(NC(C)=O)cc2OC[C@H](C)N(S(=O)(=O)c2cn(C)cn2)C[C@H]1C`, the cytotoxicity call in the experiment on HSkMC and with HepG2 was “inactive” throughout. Further, the growth inhibition call with S. aureus RN4220 was “inactive”.

As to `C[C@@H]1CN([C@@H](C)CO)C(=O)c2cc(C#CC3CCCC3)cnc2O[C@H]1CN(C)C(=O)Cc1ccccn1`, the cytotoxicity call with HSkMC and in the experiment with HepG2 was “inactive” each time. For the same compound, the growth inhibition call with S. aureus RN4220 is “inactive”.

Consider `CN1CCCN(C[C@@H]2CN(C(=O)Cn3cccn3)C[C@@H]2CO)CC1`, for which the cytotoxicity call in the experiment with HSkMC and in the experiment with HepG2 was “inactive” each time. Also, the growth inhibition call with S. aureus RN4220 was “inactive”.

On to `C[C@H](CO)N1C[C@H](C)[C@@H](CN(C)CC2CCCCC2)Oc2c(NS(=O)(=O)c3cn(C)cn3)cccc2C1=O`, for which the cytotoxicity call with HSkMC and in the experiment on HepG2 was “inactive” throughout. Besides, the growth inhibition call in the experiment with S. aureus RN4220 was “inactive”.

In the case of `O[C@@H](COc1cccc2ncccc12)CN1CCN([C@@H]2c3ccccc3[C@@H]3[C@H](c4ccccc42)C3(F)F)CC1`, the cytotoxicity call in the experiment on HSkMC was “active”. In addition, the cytotoxicity call with HepG2 was “inactive”. Moreover, in the experiment with S. aureus RN4220, the growth inhibition call is “inactive”.

For the compound `C[C@@H]1CN([C@H](C)CO)C(=O)c2cccc(NS(=O)(=O)c3cccs3)c2O[C@@H]1CN(C)Cc1ccc(Oc2ccccc2)cc1`, the cytotoxicity call in the experiment with HSkMC and with HepG2 was “inactive” in each case. In addition, the growth inhibition call in the experiment on S. aureus RN4220 was “inactive”.

Consider `CC(C)N1[C@@H]2OC(C3O[C@H]4[C@H](O3)N(C(C)C)S(=O)(=O)N4C(C)C)O[C@@H]2N(C(C)C)S1(=O)=O` (stereo not given in full), for which the cytotoxicity call in the experiment with HSkMC and in the experiment on HepG2 was “inactive” in each case. In the experiment on S. aureus RN4220, the growth inhibition call was “inactive”.

Consider `C[C@@H]1CN([C@@H](C)CO)C(=O)c2cc(NC(=O)Nc3ccc(C(F)(F)F)cc3)ccc2O[C@@H](C)CCCCO[C@@H]1CN(C)Cc1ccccc1`, for which the cytotoxicity call with HSkMC is “inactive”. Besides, in the experiment on HepG2, the cytotoxicity call is “active”. The growth inhibition call in the experiment on S. aureus RN4220 is “inactive”.

As for `COc1ccc2c3c(n(c2c1)C)[C@@H](CO)N(C[C@]13CN(Cc2cccnc2)C1)S(=O)(=O)c1ccc(cc1)C`, the cytotoxicity call with HSkMC and with HepG2 was “inactive” in each case. The growth inhibition call with S. aureus RN4220 is “inactive”.

On to `COc1ccc(S(=O)(=O)N(C)C[C@@H]2Oc3ccc(NS(=O)(=O)c4ccc(C)cc4)cc3C(=O)N([C@H](C)CO)C[C@@H]2C)cc1`, for which the cytotoxicity call with HSkMC and with HepG2 was “inactive” each time. In addition, the growth inhibition call with S. aureus RN4220 is “inactive”.

Take `Cc1noc(C)c1S(=O)(=O)Nc1cccc2c1O[C@@H](CN(C)C(=O)Nc1ccc3c(c1)OCO3)[C@@H](C)CN([C@H](C)CO)C2=O`: the cytotoxicity call in the experiment on HSkMC and with HepG2 was “inactive” throughout. Moreover, in the experiment with S. aureus RN4220, the growth inhibition call is “inactive”.

On to `Cc1ccc(Nc2nc(-c3ccc(C)cc3)c(C)s2)cc1`, for which the cytotoxicity call with HSkMC and in the experiment on HepG2 was “inactive” each time. Besides, the growth inhibition call with S. aureus RN4220 was “inactive”.

In the case of `CN(C)CC(=O)N[C@H]1CC[C@H](CCn2cc(CN(C)C)nn2)O[C@H]1CO`, the cytotoxicity call in the experiment with HSkMC and in the experiment on HepG2 was “inactive” throughout. The growth inhibition call in the experiment with S. aureus RN4220 was “inactive”.

On to `CCCCC[C@@H](C)N`, for which the cytotoxicity call with HSkMC and with HepG2 was “inactive” throughout. For the same compound, in the experiment with S. aureus RN4220, the growth inhibition call is “inactive”.

With `NC(=O)[C@@]1(CCS(=O)(=O)c2ccccc2)N=C(c2ccc(OCCCO)cc2)O[C@H]1c1ccccc1`, the cytotoxicity call in the experiment on HSkMC and in the experiment on HepG2 was “inactive” each time. Besides, in the experiment with S. aureus RN4220, the growth inhibition call is “inactive”.

With `O=C(CN1CCOCC1)NCC[C@@H]1CC[C@H](NC(=O)c2ccccc2F)[C@@H](CO)O1`, the cytotoxicity call with HSkMC and with HepG2 was “inactive” throughout. Moreover, the growth inhibition call in the experiment on S. aureus RN4220 was “inactive”.

On to `Cc1cccc(S(=O)(=O)N2C[C@H](O)COC[C@H]3O[C@@H](CC(=O)NCc4ccc5c(c4)OCO5)CC[C@@H]32)c1`, for which the cytotoxicity call in the experiment on HSkMC and in the experiment on HepG2 was “inactive” each time. The growth inhibition call in the experiment with S. aureus RN4220 is “inactive”.

As for `Cn1cnc(S(=O)(=O)N[C@H]2C=C[C@H](CC(=O)Nc3ccccc3)O[C@H]2CO)c1`, the cytotoxicity call in the experiment with HSkMC and with HepG2 was “inactive” each time. Besides, the growth inhibition call in the experiment with S. aureus RN4220 is “inactive”.

Consider `NCC[C@@H]1CC[C@@H](NC(=O)C2CCCC2)[C@@H](CO)O1`, for which the cytotoxicity call in the experiment on HSkMC and in the experiment on HepG2 was “inactive” throughout. The growth inhibition call in the experiment on S. aureus RN4220 is “inactive”.

For `COc1ccc(S(=O)(=O)N(C)C[C@@H]2Oc3cc(C4=CCCC4)ccc3S(=O)(=O)N([C@@H](C)CO)C[C@H]2C)cc1`, the cytotoxicity call in the experiment on HSkMC and with HepG2 was “inactive” throughout. The growth inhibition call in the experiment with S. aureus RN4220 was “inactive”.

Take `C[C@H](CO)N1C[C@H](C)[C@H](CN(C)S(=O)(=O)c2ccc(F)cc2)Oc2ncc(C#Cc3cccc(F)c3)cc2C1=O`: the cytotoxicity call with HSkMC is “inactive”. Moreover, in the experiment on HepG2, the cytotoxicity call is “active”. Moreover, the growth inhibition call with S. aureus RN4220 was “inactive”.

Consider `COc1cccc(S(=O)(=O)Nc2ccc3c(c2)[C@H]2C[C@H](CC(=O)NC4CCCCC4)O[C@H](CO)[C@H]2O3)c1`, for which the cytotoxicity call in the experiment on HSkMC and in the experiment with HepG2 was “inactive” in each case. The growth inhibition call in the experiment on S. aureus RN4220 was “inactive”.

Take `C[C@H](CO)N1C[C@H](C)[C@H](CN(C)C)Oc2cc(C#C[C@@H](C)O)ccc2S1(=O)=O`: the cytotoxicity call in the experiment on HSkMC (human skeletal muscle cells) and in the experiment on HepG2 was “inactive” each time. In addition, the growth inhibition call in the experiment with S. aureus RN4220 is “inactive”.
